Target: hIL-6/hIL-6Rα interaction with hgp130 (Homo sapiens, UniProt P05231)
Assay: Competition ELISA: blocking of binding of the hIL-6/hIL-6Rα complex to hgp130
Conditions: Example 7
Procedure: In this experiment, half area 96-well ELISA plates were coated with Fc-fused hgp130 (hgp130-Fc) at a concentration of 4 μg/ml. Plates were incubated overnight at 4° C. and then washed twice in tap water. Next, the plates were blocked for 1 h in PBSC. Plates were incubated for 1.5 h at RT and then washed 4 times with 200 μl 0.05% Tween/PBS. In separate plates, serial dilutions (concentration range 500-0.5 nM) of the 13 His6-tagged Z variant polypeptides were titrated with fixed concentration of hIL-6/hIL-6Rα (0.5 nM and 5 nM, respectively).
Plates were incubated for 1.5 h and then washed 4 times. A biotinylated anti-IL-6Rα antibody (R&D Systems) was added and the plates were incubated for another 1.5 h followed by washing. A 1:8000 dilution of streptavidin-HRP (Thermo Scientific) was added and the plates were incubated for 1 h. Next, plates were washed four times and TMB substrate (Thermo Scientific) was added for 15 min before the reaction was stopped with 2 M H2SO4. The absorbance was measured at 450 nm using a microplate reader (Victor^3, Perkin Elmer).

Chain of hIL-6/hIL-6Rα interaction with hgp130 (P05231 29-212): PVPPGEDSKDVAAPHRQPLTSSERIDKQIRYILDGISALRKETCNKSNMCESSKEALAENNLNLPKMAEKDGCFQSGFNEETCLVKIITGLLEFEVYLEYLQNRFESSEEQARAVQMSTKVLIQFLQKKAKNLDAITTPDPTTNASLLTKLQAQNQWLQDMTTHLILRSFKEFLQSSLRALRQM
Chain of hIL-6/hIL-6Rα interaction with hgp130 (P08887 20-358 partner limits assumed): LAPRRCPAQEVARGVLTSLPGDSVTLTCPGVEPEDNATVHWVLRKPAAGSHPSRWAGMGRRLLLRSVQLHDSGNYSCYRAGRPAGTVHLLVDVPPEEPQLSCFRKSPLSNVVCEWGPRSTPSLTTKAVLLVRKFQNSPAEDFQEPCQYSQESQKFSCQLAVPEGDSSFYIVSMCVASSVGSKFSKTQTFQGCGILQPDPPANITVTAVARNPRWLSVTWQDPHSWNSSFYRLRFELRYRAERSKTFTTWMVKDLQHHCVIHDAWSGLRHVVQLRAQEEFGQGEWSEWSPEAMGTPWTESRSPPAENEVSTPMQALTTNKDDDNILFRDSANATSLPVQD

Substance: Z06814: primary IL-6 binding Z variant, SEQ ID NO:1512 (VDAKYAKEEQRAWREIHLLPNLTIEQMAAFIWKLLDDPSQSSELLSEAKKLNDSQAPK; Engineered IL6 binding polypeptide)
- blocking of the interaction between preformed hIL-6/hIL-6Rα complexes and hgp130: Concentration dependent blocking
